Results taken from PubChem BioAssay AID686979 (National Center for Advancing Translational Sciences (NCATS), 2013).
About 50,000 (12%) of roughly 420,000 compounds were called active. The shares of active, inactive and inconclusive entries below differ from those in the screen. Calls follow the shape of the dose curve; as a rule, active = well fitted inhibition curve with a large enough effect; inconclusive = small, poorly fitted or top-dose-only effect; inactive = flat fitted curve, though single readings scatter. No potency is given beside an inconclusive call; the fits are too rough.

Assay: qHTS for Inhibitors of human tyrosyl-DNA phosphodiesterase 1 (TDP1): qHTS in cells in presence of CPT; also: nearly all actives have a fitted effect of over 55% in size
Details: chicken DT40 Tdp1-/-;hTDP1 cells + 20 nM CPT, ATP luminescence, 48 h; activity change, negative = growth inhibition: at 46.2 µM (top of the series) unless noted
Summary of the method: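 Chicken DT40 Tdp1-/- cells stably complemented with human TDP1 were seeded at 400 cells/well in medium containing 20 nM camptothecin, exposed to pin-transferred compounds, and grown at 37 °C for at least 48 hr. Viability was read as ATP luminescence.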
% is scaled to controls: 0 for no effect and ±100 for the full control effect; potency is read from the fitted curve at half-maximal effect; tags tell the direction and shape of the fitted curve.

SMILES	Potency	activity change, negative = growth inhibition
CC1CN(CC(=O)Nc2nc(-c3ccc(Cl)cc3)cs2)CC(C)O1 (centres undefined)	inconclusive [inhibitor, single point]	–
Cc1ccc(-c2noc(CCC(N)=O)n2)cc1	inactive	–
COCCN(CC(=O)Nc1cccc(C)c1C)C(=O)c1cc(-c2ccncc2)nc2ccccc12	inconclusive [inhibitor, partial curve]	–
Cc1ccccc1-c1ccc(CN2C(C(C)C)C(=O)N(Cc3cn(CCC4OCCO4)nn3)CCS2(=O)=O)cc1 (centres undefined)	inconclusive [inhibitor, single point]	–
Cn1cnc([N+](=O)[O-])c1Sc1ncn[nH]1	active: 18.4 µM	–
COC(=O)c1c(NC(=O)c2nn(C)cc2Cl)sc2c1CCCC2	inconclusive [inhibitor, single point]	–
Cc1cc(C(=O)N/N=C/c2cc(Br)cc([N+](=O)[O-])c2O)c2ccccc2n1	inconclusive [inhibitor, single point]	–
CC1Cc2ccccc2N1C(=O)C12CCC(C)(C(=O)C1)C2(C)C (centres undefined)	inconclusive [inhibitor, partial curve, poor fit]	–
Cc1ccn2c(C(=O)CSc3ccccc3Cl)c(C)nc2c1	–	inconclusive: -25.7% [inhibitor]
COc1cccc(OC)c1OCCOCCn1cnc2ccccc2c1=O	–	inconclusive: -30.2% [inhibitor]
Cc1ccc(-n2c(N)c(C(=O)Nc3ccccc3F)sc2=S)cc1C	inconclusive [inhibitor, single point]	–
CC(C)(C)c1ccc2c(c1)OC(C(=O)N/N=C/c1ccc([N+](=O)[O-])o1)CO2 (centres undefined)	active: 16.4 µM	–
CCCSc1ncc(Cl)c(C(=O)Nc2sc3c(c2C(=O)NCCOC)CCCC3)n1	inconclusive [inhibitor, partial curve]	–
Cc1ccc(-c2nc(=Nc3ccccc3)sn2-c2ccccc2)cc1	active: 3.55 µM	–
COCOc1cccc(CN2CCC2(C)C(=O)Nc2ccc3c(c2)OCO3)c1 (centres undefined)	inconclusive [inhibitor, single point]	–
COc1cc(C=O)ccc1OCc1cccc(Br)c1	inactive	–
CCCCOC(=O)c1ccc(NC(=O)c2cc3c(=O)n4cccc(C)c4nc3n2C)cc1	inconclusive [inhibitor, full curve]	–
O=C(NCCCn1ccnc1)c1ccc(-c2cccc(C(F)(F)F)c2)o1	inconclusive [inhibitor, single point]	–
O=S(=O)(NCCc1csc(-c2cccnc2)n1)c1ccc2c(c1)OCCO2	–	inconclusive: -34.5% [inhibitor]
